The whole screen tested about 230,000 compounds, of which about 3,600 (1.6%) were called active. Inconclusive means that the source gave no clear call. Such entries were picked first, then a sample of the others. Calls follow the shape of the dose curve; as a rule, active = well fitted inhibition curve with a large enough effect (not every such curve was filed as active); inconclusive = small, poorly fitted or top-dose-only effect, or another doubt; inactive = no such curve, though single readings can be large or run the other way. Potencies of inconclusive entries are doubtful fits and often do not repeat.
The molecules below were run against Lysine-specific demethylase 4E (Homo sapiens) (UniProt B2RXH2) (assay: qHTS Assay for Inhibitors of Human Jumonji Domain Containing 2E (JMJD2E)). Conditions: JMJD2E catalytic domain, FDH-coupled NADH fluorescence (FDH is formaldehyde dehydrogenase); series mostly up to 57.1 µM; activity change, negative = inhibition: at the top concentration.
Also: nearly all actives have a fitted effect of over 50% in size.
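For activity change, negative = inhibition in this document: 0% = wells with enzyme and -100% = buffer wells without enzyme.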
Potency is read from the fitted curve at half-maximal effect; tags tell the direction and shape of the fitted curve.

Chain of UniProt B2RXH2 (B2RXH2 whole entry, looked up, the tested form may be a part): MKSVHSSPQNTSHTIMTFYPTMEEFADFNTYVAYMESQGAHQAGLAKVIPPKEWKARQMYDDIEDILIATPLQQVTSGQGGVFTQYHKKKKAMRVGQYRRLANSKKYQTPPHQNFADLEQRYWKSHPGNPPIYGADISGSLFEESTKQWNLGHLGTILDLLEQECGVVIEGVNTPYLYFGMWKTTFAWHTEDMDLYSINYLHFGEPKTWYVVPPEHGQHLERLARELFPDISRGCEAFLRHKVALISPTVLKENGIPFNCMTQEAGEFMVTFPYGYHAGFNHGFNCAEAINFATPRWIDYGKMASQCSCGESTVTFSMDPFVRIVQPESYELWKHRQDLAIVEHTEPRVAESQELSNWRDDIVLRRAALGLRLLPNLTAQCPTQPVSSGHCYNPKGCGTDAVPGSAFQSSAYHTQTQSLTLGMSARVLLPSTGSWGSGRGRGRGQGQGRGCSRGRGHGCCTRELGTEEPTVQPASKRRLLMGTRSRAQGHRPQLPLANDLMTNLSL

Row | Structure (SMILES) | activity change, negative = inhibition | Potency
1 | O=C(CSc1nnc2ncccn12)N1CCCCCC1 | inactive: -25.2% | 
2 | COc1ccc(CN(C)CCc2ccccn2)c(OC)c1OC |  | inconclusive: 35.5 µM [inhibitor, single point]
3 | CCN(CC)S(=O)(=O)c1cc(NC(=O)CSc2nccn2C)ccc1C | inactive: 14% | 
4 | COC(=O)COc1c(Cl)cc(Cl)c2ccc(C)nc12 |  | inconclusive: 10 µM [inhibitor, partial curve]
5 | Cc1csc2nc(CSc3nc4ccccc4o3)cn12 | inactive: -2.46% | 
6 | COc1ccc(N2CCN(C(=O)COc3ccc4c(C)cc(=O)oc4c3)CC2)cc1 |  | inconclusive: 31.6 µM [inhibitor, partial curve]
7 | Cc1ccc(S(=O)(=O)N2CCOCC2)cc1C(=O)Nc1ccc(-c2cn3ccsc3n2)cc1 |  | inconclusive: 39.8 µM [inhibitor, single point]
8 | Cc1cc(O)c(NC(=O)c2ccco2)cc1C | inactive: 0.194% | 
9 | COc1ccc(NC(=O)N(Cc2cc3ccc(OC)cc3[nH]c2=O)CC2CCCO2)cc1 (centres undefined) |  | inconclusive: 31.6 µM [inhibitor, single point]
10 | COc1cccc(CN2CCCC(C(=O)N3CCCCC3)C2)c1OC (centres undefined) |  | inconclusive: 35.5 µM [inhibitor, single point]
11 | CCn1cc(C(=O)O)c(=O)c2cc(F)c(N3CCN(S(=O)(=O)c4ccc(NC(C)=O)cc4)CC3)cc21 |  | inconclusive: 31.6 µM [inhibitor, partial curve]
12 | CN(C)c1cccc2c1c(NC(=O)Nc1ccccc1)nn2C |  | inconclusive: 15.8 µM [inhibitor, partial curve]
13 | CCOC(=O)C1=C(C)NC(SC)=NC1c1ccc(OC)cc1 (centres undefined) |  | inconclusive: 8.91 µM [inhibitor, single point]
14 | COc1cccc(NC(=O)C(OC(=O)/C=C/c2ccc3c(c2)OCO3)c2ccccc2)c1 (centres undefined) |  | inconclusive: 35.5 µM [inhibitor, partial curve]
15 | Cc1ccccc1Cn1nc(C)c(NC(=O)C2c3ccccc3Oc3ccccc32)c1C | inactive: 7.11% | 
16 | COc1cc2nc(NC(=O)c3ccco3)sc(=O)c2cc1OC |  | inconclusive: 39.8 µM [inhibitor, single point]
17 | C/C(CC(=O)NC(C)(C)C)=N\NC(=O)c1ccccc1N |  | inconclusive: 31.6 µM [inhibitor, single point]
18 | CSc1ccc2nnc(-c3cccc(F)c3)n2n1 |  | inconclusive: 35.5 µM [inhibitor, single point]
19 | Cc1nc2sc(C(c3cccs3)N3CCN(C(=O)c4ccco4)CC3)c(O)n2n1 (centres undefined) |  | inconclusive: 28.2 µM [inhibitor, single point]
20 | O=C(CSc1nnc(-c2ccco2)c(-c2ccco2)n1)Nc1ccccc1 |  | active: 15.8 µM
21 | O=c1[nH]c(=O)n(Cc2ccccc2)c2nc(-c3ccco3)cc(C(F)(F)F)c12 |  | inconclusive: 14.1 µM [inhibitor, partial curve]
22 | COc1ccccc1C(=O)Nc1ccc(S(=O)(=O)N2CCCCC2c2cccnc2)cc1 (centres undefined) |  | inconclusive: 39.8 µM [inhibitor, single point]
23 | COC(=O)c1[nH]c(C)c(/C(O)=C2\C(=O)C(=O)N(CCCN3CCOCC3)C2c2ccccn2)c1C (centres undefined) |  | inconclusive: 35.5 µM [inhibitor, single point]

Row | Structure (SMILES) | activity change, negative = inhibition | Potency
24 | COc1ccc(C(=O)/C=C/Nc2ccc(C)cn2)cc1OC |  | inconclusive: 25.1 µM [inhibitor, partial curve]
25 | COc1cc(C2C3=C(CC(C)(C)CC3=O)NC3=C2C(=O)c2ccccc23)ccc1O (centres undefined) | inactive: 5.67% | 
26 | O=C(O)CNC(=S)N(Cc1cccs1)C1CCCCC1 | inactive: -6.2% | 
27 | O=C(/C=C\c1cn(-c2ccccc2)nc1-c1ccccc1)Nc1nccs1 |  | inconclusive: 28.2 µM [inhibitor, partial curve]
28 | CC(C)=CCc1c2c(c3occ(-c4ccc(O)c(O)c4)c(=O)c3c1O)C=CC(C)(C)O2 |  | inconclusive: 39.8 µM [inhibitor, single point]
29 | CC1(C)O[C@@H]2C[C@H]3[C@@H]4C[C@H](F)C5=CC(=O)C=C[C@]5(C)[C@@]4(F)[C@@H](O)C[C@]3(C)[C@]2(C(=O)CO)O1 |  | inconclusive: 39.8 µM [inhibitor, single point]
30 | O=C1CC(NN2CCCCC2)C(=O)N1c1ccccc1 (centres undefined) |  | inconclusive: 25.1 µM [inhibitor, partial curve, poor fit]
31 | CC(C)(C)NC(=O)Cn1ccc(=N)c2ccccc21 |  | inconclusive: 39.8 µM [inhibitor, single point]
32 | CC(=O)C(C)Oc1ccc2c3c(c(=O)oc2c1)CCCCC3 (centres undefined) |  | inconclusive: 28.2 µM [inhibitor, partial curve]
33 | CCS(=O)(=O)Nc1cc(-c2nc3cccnc3s2)ccc1C |  | inconclusive: 28.2 µM [inhibitor, partial curve]
34 | Cc1cc(-c2nnc(CCC(=O)N3CCN(Cc4cccnc4)CC3)o2)c(C)o1 |  | inconclusive: 6.31 µM [inhibitor, single point]
35 | COC(=O)c1c(NC(=O)CN2CCC3(O)CCCCC3C2c2cc(OC)ccc2OC)sc(C)c1C (centres undefined) |  | inconclusive: 31.6 µM [inhibitor, single point]
36 | CCOC(=O)C1CCN(c2nc3ccccc3nc2C(C#N)C(=O)OC(C)COC)CC1 (centres undefined) |  | inconclusive: 31.6 µM [inhibitor, single point]
37 | CCOC(=O)c1c(C)nc(-c2ccccc2)nc1NC(C)=O |  | inconclusive: 39.8 µM [inhibitor, single point]
38 | CC1=NCCN1S(=O)(=O)c1cccc([N+](=O)[O-])c1 | inactive: -1.96% | 
39 | COC(=O)c1ccc(CSc2nc3ccccc3c(=O)n2-c2cccc(OC)c2)o1 |  | inconclusive: 3.16 µM [inhibitor, partial curve]
40 | O=C(CSc1ccsc1[N+](=O)[O-])NCCc1ccc(Cl)cc1 | inactive: -2.44% | 
41 | Cc1oc(-c2cc3c(cc2Cl)OCO3)nc1CN1CCCC1c1ccc(F)cc1 (centres undefined) |  | inconclusive: 39.8 µM [inhibitor, single point]
42 | CCN(CC)S(=O)(=O)c1cccc(-c2nnc(-c3ccc(C)cc3)o2)c1 | inactive: -0.416% | 
43 | CO/N=C/c1ccc(Sc2ccc(C)cc2)c([N+](=O)[O-])c1 | inactive: 1.3% | 
44 | CCN1C=C(Cc2ccc(F)cc2)C2=C(C1)C(c1ccc(F)cc1)C(C#N)=C(N)O2 (centres undefined) |  | inconclusive: 39.8 µM [inhibitor, single point]
45 | N#Cc1cc2c([nH]c1=S)CCCCCC2 |  | inconclusive: 35.5 µM [inhibitor, single point]
46 | C/C=C(\C)C(=O)OC1[C@@H]2C=C3C4CC(=O)OC(c5ccoc5)[C@]4(C)CCC3[C@@](C)(C2=O)C(C(O)C(=O)OC)C1(C)C (some centres undefined) | inactive: 1.58% | 

Row | Structure (SMILES) | activity change, negative = inhibition | Potency
47 | COCCSc1ncnc2c1oc1nc3c(cc12)COC(C)(C)C3 | inactive: -17.5% | 
48 | CCOc1ccc(N(CC(=O)Nc2ccccc2C(=O)NC(C)CC)S(C)(=O)=O)cc1 (centres undefined) |  | inconclusive: 25.1 µM [inhibitor, single point]
49 | O=C(N/N=C/c1ccc[nH]1)c1ccc2c(c1)OCO2 |  | inconclusive: 39.8 µM [inhibitor, single point]
50 | CCc1c(C)[nH]c2ccc(OC)cc2c1=S |  | inconclusive: 25.1 µM [inhibitor, partial curve]
51 | CCCCCCCCCCCCCCC[C@@H](O)[C@H](CO)NC(=O)CCCCCCC | inactive: 6.63% | 
52 | CCOC(=O)C(CCCCP(=O)(c1ccccc1)c1ccccc1)(NC(C)=O)C(=O)OCC | inactive: 3.52% | 
53 | C/C(=N/NC(=O)Cc1cccn1C)c1ccccc1 | inactive: -0.379% | 
54 | CCOC(=O)c1ccc(Nc2ncnc3ccc(C)cc23)cc1 |  | inconclusive: 11.2 µM [inhibitor, partial curve]
55 | Cc1cc(-c2ccccc2)c(C#N)c(N)n1 |  | inconclusive: 22.4 µM [inhibitor, partial curve]
56 | CCc1nnc(NC(=O)C2CCN(c3nccc(C)n3)CC2)s1 |  | inconclusive: 35.5 µM [inhibitor, single point]
57 | N#CC(C(=O)C1CCCCC1)c1nc2ccccc2[nH]1 (centres undefined) |  | inconclusive: 39.8 µM [inhibitor, single point]
58 | O=C(Nc1ccc2c(c1)nc1n2CCN(Cc2ccccc2)C1)c1cccs1 |  | inconclusive: 28.2 µM [inhibitor, partial curve]
59 | COC/C=C/C1=CC2=CC(=O)C(C)(OC(=O)c3cnc4ccccc4n3)C(=O)C2=CN1Cc1ccc2c(c1)OCO2 (centres undefined) | inactive: -22.5% [at 11.4 µM] | 
60 | COCCN1C(=O)/C(=C/c2ccc(N3CCCC3)cc2C)SC1=S | inactive: -29.6% | 
61 | CCN1CCN(C(=O)c2cn(CCOC)c(=O)c3c2c2ccccc2n3C)CC1 |  | inconclusive: 28.2 µM [inhibitor, partial curve]
62 | CCOc1nc2ccccc2cc1/C=C/C(=O)O |  | inconclusive: 28.2 µM [inhibitor, partial curve]
63 | COc1ccc(-c2nc3nc(C)c(Cc4ccccc4)c(=O)n3[nH]2)cc1 |  | inconclusive: 12.6 µM [inhibitor, partial curve]
64 | Cc1cc(-c2ccccc2)nn1-c1nc2c(c(=O)[nH]c(=O)n2C)n1C |  | inconclusive: 25.1 µM [inhibitor, partial curve]
65 | CCOC(=O)c1c(-c2ccc(-c3ccccc3)cc2)csc1NC(=O)CCN1CCOCC1 | inactive: -29.6% | 
66 | Cc1cccc(Nc2nnc(SCC(=O)Nc3cccc(S(=O)(=O)N4CCCCC4)c3)s2)c1 | inactive: -2.54% | 
67 | Cc1ccccc1NS(=O)(=O)c1cc(C(=O)NCc2ccco2)ccc1C | inactive: 5.25% | 
68 | C=C(C)Cn1c(SCC(=O)N/N=C/c2ccccc2)nc2ccccc2c1=O | inactive: 1.81% | 
69 | CCOC(=O)C1CCCN(C(=O)Cc2ccc(C)cc2)C1 (centres undefined) | inactive: -1.04% | 

Source: PubChem BioAssay AID2147 (National Center for Advancing Translational Sciences (NCATS), 2009)
